Reference: PubChem BioAssay AID651820 (National Center for Advancing Translational Sciences (NCATS), 2012)
The whole screen tested about 340,000 compounds, of which about 12,000 (3.5%) were called active. Inconclusive means that the source gave no clear call. Such entries were picked first, then a sample of the others. Calls follow the shape of the dose curve; as a rule, active = well fitted inhibition curve with a large enough effect; inconclusive = small, poorly fitted or top-dose-only effect, or another doubt; inactive = no such curve, though single readings can be large or run the other way. No potency is given beside an inconclusive call; the fits are too rough.

Test: qHTS Assay for Inhibitors of Hepatitis C Virus (HCV)
Settings: Huh7.5.1 HCVcc-Cre (HCVcc is cell-culture hepatitis C virus) infection, luciferase reporter, 44 h; activity change, negative = inhibition: at 41.8 µM (top of the series) unless noted
Summary of the method: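 Whole-lifecycle infectious HCVcc-Cre system; cells 1,000/well, compound then virus (~0.5 moi) added 4 h after plating, 44 h culture. Luciferase read 15 sec following 15 min substrate incubation, room temp.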
% is scaled to controls: 0 for no effect and ±100 for the full control effect; potency is read from the fitted curve at half-maximal effect; tags tell the direction and shape of the fitted curve.

Compound | activity change, negative = inhibition | Potency
CC(=O)c1ccc(S(=O)(=O)N2CCN(C(=O)CCC3CCCC3)CC2)cc1 | inactive: 3.25% | –
COc1cc(NC(=O)c2cc(-c3ccccc3Cl)on2)cc(OC)c1OC | – | active: 1.12 µM
Cc1ccc2nsnc2c1S(=O)(=O)N(Cc1cc2cccc(C)c2[nH]c1=O)CC1CCCO1 (stereo not drawn) | – | inconclusive [inhibitor, partial curve]
Cc1cccc(NC(=O)c2cccc(NC(=O)c3ccccc3)c2)n1 | – | inconclusive [inhibitor, single point]
CCN(CC)CCNC(=O)CS(=O)Cc1nc(-c2ccc(C)cc2)oc1C (stereo not drawn) | – | inconclusive [inhibitor, single point]
COc1ccc(-c2c(C#N)c(N)nc3sc(C(=O)c4ccc(C)cc4)c(N)c23)cc1 | – | inconclusive [inhibitor, single point]
CCCN1C(=O)c2cc(C(=O)Nc3ccc(OC)c(OC)c3)ccc2C1Nc1ccc(OC)c(OC)c1 (stereo not drawn) | – | inconclusive [inhibitor, partial curve]
CC(C)NC(=O)CSc1nncn1-c1ccccc1 | inactive: 16.8% | –
COc1ccc(C)c2sc(N(CCCN(C)C)C(=O)CS(=O)(=O)c3ccc(F)cc3)nc12 | – | inconclusive [inhibitor, single point]
c1ccc(Cn2ccnc2SCc2nnc(-c3ccccc3)o2)cc1 | – | inconclusive [inhibitor, partial curve, poor fit]
O=[N+]([O-])c1ncccc1Oc1nc(-c2cccnc2)nc2ccccc12 | – | inconclusive [inhibitor, single point]
Cc1noc(C)c1COc1ccccc1C(=O)N1CCN(S(=O)(=O)c2ccc(F)c(F)c2)CC1 | inactive: 14.9% | –
C=C1CC(Cn2cc(Br)c(=O)[nH]c2=O)(c2ccc(-c3ccccc3)cc2)OC1=O (stereo not drawn) | – | inconclusive [inhibitor, partial curve, poor fit]
O=S(=O)(NC1CCCC1)c1cccc(S(=O)(=O)N2CCC(n3nnc4ccccc43)CC2)c1 | – | inconclusive [inhibitor, single point]
CCN(CC)C(=O)[C@H]1C[C@H](CC(=O)NCC23CC4CC(CC(C4)C2)C3)C(=O)N2CCc3c([nH]c4cc(-c5ccco5)ccc34)[C@]12C | inactive: 13% | –
CCOC(=O)C(C)Oc1cccc2c(=O)n(CC(=O)NCc3ccco3)ccc12 (stereo not drawn) | – | inconclusive [inhibitor, partial curve]
CC(C)(C)CC(=O)Nc1ccccc1N1CCN(c2ccccc2)CC1 | inactive: 4.96% | –
CN(C)S(=O)(=O)c1cc(NC(=O)CN2CCN(c3ccccc3O)CC2)ccc1Cl | – | inconclusive [inhibitor, partial curve]
